Data taken from PubChem BioAssay AID686979 (National Center for Advancing Translational Sciences (NCATS), 2013).
In all, about 420,000 compounds went through this assay and about 50,000 (12%) were called active. The inconclusive results got no clear call from the source; some entries with a clear call stand among them for comparison. Calls follow the shape of the dose curve; as a rule, active = well fitted inhibition curve with a large enough effect; inconclusive = small, poorly fitted or top-dose-only effect; inactive = flat fitted curve, though single readings scatter. No potency is given beside an inconclusive call; the fits are too rough. A structure can be active in one record and inactive in another.
% is scaled to controls: 0 for no effect and ±100 for the full control effect; potency is read from the fitted curve at half-maximal effect; tags tell the direction and shape of the fitted curve.

Experiment: qHTS for Inhibitors of human tyrosyl-DNA phosphodiesterase 1 (TDP1): qHTS in cells in presence of CPT; also: nearly all actives have a fitted effect of over 55% in size
Details: chicken DT40 Tdp1-/-;hTDP1 cells + 20 nM CPT, ATP luminescence, 48 h; activity change, negative = growth inhibition: at 46.2 µM (top of the series)
Procedure, shortened: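 Chicken DT40 Tdp1-/- cells stably complemented with human TDP1 were seeded at 400 cells/well in medium containing 20 nM camptothecin, exposed to pin-transferred compounds, and grown at 37 °C for at least 48 hr. Viability was read as ATP luminescence.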
With `CN(C)Cc1c(C(=O)N/N=C/c2ccc(OCc3c(F)cccc3Cl)cc2)nnn1-c1nonc1N` the Potency was inconclusive [inhibitor, single point]. In the case of `COc1ccc(CCNC(=O)CCn2c(=O)c3ccccc3n(Cc3ccccc3F)c2=O)cc1OC`, the Potency is reported as active: 14.6 µM. With `O=C(Cn1c2ccccc2c(=O)c2cc([N+](=O)[O-])ccc21)Nc1ccccc1Cl` the Potency was inconclusive [inhibitor, single point]. In the case of `CC(C(=O)NCCSCc1cccc(Cl)c1)N(c1ccccc1)S(C)(=O)=O` (centres undefined), the Potency is reported as active: 20.6 µM. In the case of `CC(=O)Nc1nc2n(n1)C(c1ccc(F)cc1)C=C(c1ccc(Cl)cc1)N2` (centres undefined), the Potency is reported as inconclusive [inhibitor, single point]. For `CC(=O)c1cccc(NC(=O)C2CCN(S(=O)(=O)c3ccc4c(c3)CCCN4C(C)=O)CC2)c1`, the Potency was inconclusive [inhibitor, single point]. In the case of `COc1cccc(C(=O)Cn2c(Br)nc3c2c(=O)n(C)c(=O)n3C)c1`, the Potency is reported as inconclusive [inhibitor, single point]. With `O=C(Nc1ccncc1)c1cc(-c2ccccn2)nc2ccc(Br)cc12` the “activity change, negative = growth inhibition” value was inactive: 17%. With `CC(=O)Oc1ccc(N2C(=O)C3C4C=CC(O4)C3C2=O)cc1` (centres undefined) the Potency was inconclusive [inhibitor, single point]. For `COc1cc2c(cc1NC(=S)NC(=O)/C=C/c1ccco1)oc1ccccc12`, the Potency was active: 16.4 µM. With `CC(=O)Nc1cccc(NC(=O)c2ccccc2OCc2ccccc2)c1` the Potency was inconclusive [inhibitor, single point]. With `CN(C)c1ccc(C=C2SC(=S)N(Cc3ccco3)C2=O)cc1` the Potency was inconclusive [inhibitor, single point]. In the case of `COC(=O)c1ccc(NC(=O)CCN2CCN(CCC(=O)Nc3ccc(C(=O)OC)cc3)CC2)cc1`, the “activity change, negative = growth inhibition” value is reported as inactive: -17.1%. In the case of `CCN(Cc1ccccc1)C(=O)c1ccc(NC(=O)c2ccc(OC)cc2)cc1`, the Potency is reported as inconclusive [inhibitor, single point]. With `COc1cc(C)c(COc2ncnc3ccccc23)cc1OC` the activity change, negative = growth inhibition was inconclusive: -31.6% [inhibitor]. With `O=[N+]([O-])c1ccc(CSC2=NCCS2)cc1` the “activity change, negative = growth inhibition” value was inactive: 6.05%. For `O=C(CSc1nnc(-c2ccco2)n1Cc1ccccc1)c1ccc(F)cc1`, the “activity change, negative = growth inhibition” value was inactive: -24.5%. With `Cc1cnc(CNc2ncncc2-c2ccc3c(c2)OCO3)cn1` the Potency was inconclusive [inhibitor, single point]. In the case of `CCN1CCN(C(=O)c2ccc(CN(c3ccccc3)S(=O)(=O)c3ccccc3)cc2)CC1`, the “activity change, negative = growth inhibition” value is reported as inactive: -19.6%.
